According to the supplement of paper PMC4996465:
Viability of KB3-1 and Nalm-6 cells after 48 h of drug alone (CellTiter-Glo), 11 doses over about 4.5 log units. % of DMSO wells, lower = more cell loss; AC50 from the fitted curve, lower = more potent. No active / inactive call. Nalm-6 was screened in two runs. AC50 is listed only for well-fitted inhibitory curves. KB3-1 is a HeLa-derived carcinoma line, Nalm-6 a B-cell precursor leukaemia line.

How the values were obtained:
[1] = test system: Nalm-6; assay: log AC50 of viability decrease (48 h) (log10 M); higher = less potent
Method: (§1)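 Eleven-dose screen of the NCATS MIPE 3 library on cells without co-treatment; CellTiter-Glo after 48 h. AC50 from the curve fit; only inhibitory curves of the better fit classes are listed.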

[2] = test system: KB3-1; assay: as above
Method: as §1

[3] = test system: Nalm-6; assay: viability (% of DMSO control); higher = more viable cells
Method: (§2)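 Eleven-dose screen of the NCATS MIPE 3 library on cells without co-treatment; CellTiter-Glo after 48 h, as % of DMSO wells.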

[4] = test system: KB3-1; assay: as above
Method: as §2

Sc1ncnc2[nH]cnc12 [6-mercaptopurine]
Conditions	log AC50 of viability decrease	viability [%]
[1], run: 1	-6.42	–
[1], run: 2	-6.22	–
[3], run: 1, 0.00156 µM	–	119
[3], run: 1, 0.00468 µM	–	125
[3], run: 1, 0.014 µM	–	117
[3], run: 1, 0.0421 µM	–	110
[3], run: 1, 0.126 µM	–	107
[3], run: 1, 0.379 µM	–	71.5
[3], run: 1, 1.14 µM	–	23.2
[3], run: 1, 3.41 µM	–	21.9
[3], run: 1, 10.2 µM	–	20.2
[3], run: 1, 30.7 µM	–	18.5
[3], run: 1, 92.2 µM	–	10.7
[3], run: 2, 0.00156 µM	–	109
[3], run: 2, 0.00468 µM	–	106
[3], run: 2, 0.014 µM	–	102
[3], run: 2, 0.0421 µM	–	108
[3], run: 2, 0.126 µM	–	95.6
[3], run: 2, 0.379 µM	–	86.4
[3], run: 2, 1.14 µM	–	40.3
[3], run: 2, 3.41 µM	–	30.5
[3], run: 2, 10.2 µM	–	26.7
[3], run: 2, 30.7 µM	–	26.7
[3], run: 2, 92.2 µM	–	19.6
[4], 0.00156 µM	–	108
[4], 0.00468 µM	–	113
[4], 0.014 µM	–	99.9
[4], 0.0421 µM	–	104
[4], 0.126 µM	–	106
[4], 0.379 µM	–	85.4
[4], 1.14 µM	–	40.5
[4], 3.41 µM	–	30.3
[4], 10.2 µM	–	28.5
[4], 30.7 µM	–	30.1
[4], 92.2 µM	–	27

Conditions	log AC50 of viability decrease
[2]	-6.22

COC[C@H]1OC(=O)C2=COC3=C2[C@@]1(C)\C4=C(C5CCC(=O)[C@@]5(C)C[C@H]4OC(C)=O)/C3=O (stereo not given in full) [17_-hydroxy Wortmannin]
Conditions	log AC50 of viability decrease	viability [%]
[1], run: 1	-5.38	–
[1], run: 2	-5.23	–
[3], run: 1, 0.00078 µM	–	111
[3], run: 1, 0.00234 µM	–	104
[3], run: 1, 0.00702 µM	–	104
[3], run: 1, 0.0211 µM	–	110
[3], run: 1, 0.0632 µM	–	98.3
[3], run: 1, 0.19 µM	–	88.9
[3], run: 1, 0.569 µM	–	75.7
[3], run: 1, 1.71 µM	–	57
[3], run: 1, 5.12 µM	–	45.5
[3], run: 1, 15.4 µM	–	40.1
[3], run: 1, 46.1 µM	–	9.31
[3], run: 2, 0.00078 µM	–	110
[3], run: 2, 0.00234 µM	–	111
[3], run: 2, 0.00702 µM	–	122
[3], run: 2, 0.0211 µM	–	121
[3], run: 2, 0.0632 µM	–	112
[3], run: 2, 0.19 µM	–	105
[3], run: 2, 0.569 µM	–	88.9
[3], run: 2, 1.71 µM	–	69.3
[3], run: 2, 5.12 µM	–	58.5
[3], run: 2, 15.4 µM	–	41.7
[3], run: 2, 46.1 µM	–	6.74
[4], 0.00078 µM	–	105
[4], 0.00234 µM	–	103
[4], 0.00702 µM	–	103
[4], 0.0211 µM	–	104
[4], 0.0632 µM	–	99.7
[4], 0.19 µM	–	99.3
[4], 0.569 µM	–	95.3
[4], 1.71 µM	–	91
[4], 5.12 µM	–	90.8
[4], 15.4 µM	–	82.2
[4], 46.1 µM	–	64.8

Conditions	log AC50 of viability decrease
[2]	-4.78

COC(=O)C\1=C(C)\N\C(=C(/[C@@H]1C2=CC(=CC=C2)[N+]([O-])=O)C(=O)OCCCN3CCC(CC3)(C4=CC=CC=C4)C5=CC=CC=C5)C [(S)-(+)-Niguldipine]
Conditions	log AC50 of viability decrease	viability [%]
[1], run: 1	-4.73	–
[1], run: 2	-4.78	–
[3], run: 1, 0.00078 µM	–	103
[3], run: 1, 0.00234 µM	–	101
[3], run: 1, 0.00702 µM	–	100
[3], run: 1, 0.0211 µM	–	109
[3], run: 1, 0.0632 µM	–	109
[3], run: 1, 0.19 µM	–	116
[3], run: 1, 0.569 µM	–	114
[3], run: 1, 1.71 µM	–	105
[3], run: 1, 5.12 µM	–	93.6
[3], run: 1, 15.4 µM	–	72.4
[3], run: 1, 46.1 µM	–	1.66
[3], run: 2, 0.00078 µM	–	94.4
[3], run: 2, 0.00234 µM	–	105
[3], run: 2, 0.00702 µM	–	101
[3], run: 2, 0.0211 µM	–	107
[3], run: 2, 0.0632 µM	–	105
[3], run: 2, 0.19 µM	–	112
[3], run: 2, 0.569 µM	–	103
[3], run: 2, 1.71 µM	–	90.8
[3], run: 2, 5.12 µM	–	78.8
[3], run: 2, 15.4 µM	–	46.9
[3], run: 2, 46.1 µM	–	2.32
[4], 0.00078 µM	–	97.5
[4], 0.00234 µM	–	101
[4], 0.00702 µM	–	97.5
[4], 0.0211 µM	–	104
[4], 0.0632 µM	–	99.8
[4], 0.19 µM	–	100
[4], 0.569 µM	–	94.5
[4], 1.71 µM	–	95.7
[4], 5.12 µM	–	90.2
[4], 15.4 µM	–	86.9
[4], 46.1 µM	–	0.761

Conditions	log AC50 of viability decrease
[2]	-4.58

CCN1CCN(Cc2ccc(-c3cc4c(N[C@H](C)c5ccccc5)ncnc4[nH]3)cc2)CC1 [AEE-788]
Conditions	log AC50 of viability decrease	viability [%]
[1], run: 1	-4.78	–
[1], run: 2	-4.78	–
[3], run: 1, 0.00078 µM	–	95.2
[3], run: 1, 0.00234 µM	–	96.6
[3], run: 1, 0.00702 µM	–	95.7
[3], run: 1, 0.0211 µM	–	105
[3], run: 1, 0.0632 µM	–	101
[3], run: 1, 0.19 µM	–	99.2
[3], run: 1, 0.569 µM	–	93.7
[3], run: 1, 1.71 µM	–	83.4
[3], run: 1, 5.12 µM	–	69.5
[3], run: 1, 15.4 µM	–	48.6
[3], run: 1, 46.1 µM	–	1.03
[3], run: 2, 0.00078 µM	–	92.5
[3], run: 2, 0.00234 µM	–	104
[3], run: 2, 0.00702 µM	–	101
[3], run: 2, 0.0211 µM	–	97.3
[3], run: 2, 0.0632 µM	–	99
[3], run: 2, 0.19 µM	–	98.3
[3], run: 2, 0.569 µM	–	97.6
[3], run: 2, 1.71 µM	–	90
[3], run: 2, 5.12 µM	–	83.4
[3], run: 2, 15.4 µM	–	47.4
[3], run: 2, 46.1 µM	–	1.45
[4], 0.00078 µM	–	99.7
[4], 0.00234 µM	–	98.8
[4], 0.00702 µM	–	102
[4], 0.0211 µM	–	101
[4], 0.0632 µM	–	101
[4], 0.19 µM	–	96.5
[4], 0.569 µM	–	90.9
[4], 1.71 µM	–	93
[4], 5.12 µM	–	95.5
[4], 15.4 µM	–	83.5
[4], 46.1 µM	–	2.42

Conditions	log AC50 of viability decrease
[2]	-4.63

O=C(O)c1ccc2cc(-c3ccc(O)c(C45CC6CC(CC(C6)C4)C5)c3)ccc2c1 [AHPN]
Conditions	log AC50 of viability decrease	viability [%]
[1], run: 1	-7.08	–
[1], run: 2	-7.03	–
[3], run: 1, 0.00078 µM	–	96.7
[3], run: 1, 0.00234 µM	–	113
[3], run: 1, 0.00702 µM	–	107
[3], run: 1, 0.0211 µM	–	107
[3], run: 1, 0.0632 µM	–	71.3
[3], run: 1, 0.19 µM	–	2.72
[3], run: 1, 0.569 µM	–	1.54
[3], run: 1, 1.71 µM	–	0.939
[3], run: 1, 5.12 µM	–	0.862
[3], run: 1, 15.4 µM	–	0.676
[3], run: 1, 46.1 µM	–	-0.893
[3], run: 2, 0.00078 µM	–	95.9
[3], run: 2, 0.00234 µM	–	114
[3], run: 2, 0.00702 µM	–	106
[3], run: 2, 0.0211 µM	–	113
[3], run: 2, 0.0632 µM	–	95.6
[3], run: 2, 0.19 µM	–	4.33
[3], run: 2, 0.569 µM	–	3.66
[3], run: 2, 1.71 µM	–	4.46
[3], run: 2, 5.12 µM	–	3.1
[3], run: 2, 15.4 µM	–	4.68
[3], run: 2, 46.1 µM	–	1.62
[4], 0.00078 µM	–	97.4
[4], 0.00234 µM	–	106
[4], 0.00702 µM	–	102
[4], 0.0211 µM	–	104
[4], 0.0632 µM	–	96.5
[4], 0.19 µM	–	92.3
[4], 0.569 µM	–	104
[4], 1.71 µM	–	95.6
[4], 5.12 µM	–	76.1
[4], 15.4 µM	–	68.2
[4], 46.1 µM	–	11.4

Conditions	log AC50 of viability decrease
[2]	-4.73
